According to the supplement of paper PMC4967469:
Lines with a small IC50 respond at low doses; a limit (>, <) means that the fit lies beyond the doses tested. For AUC the same curve is integrated over the 256-fold range of doses and scaled to a fraction; the more sensitive the line, the further below 1. For some assays here: A top dose marked as inferred was derived from the fitted curves, not read from the paper.

Key:
Experiment in all cases: Viability of human cancer cell lines after 72 h of drug (GDSC screen)
[1] = compound: COc1cccc2c1C(=O)c1c(O)c3c(c(O)c1C2=O)C[C@@](O)(C(=O)CO)C[C@@H]3O[C@H]1C[C@H](N)[C@H](O)[C@H](C)O1 [Doxorubicin]; settings: top dose 1.024 µM
Protocol: (§1)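 Human cancer cell lines in 384-well plates, medium with 10% serum, drug for 72 h over a 256-fold dose range (nine 2-fold or five 4-fold steps up to the top dose). Adherent lines were fixed and stained with the nucleic acid dye Syto60, suspension lines read with resazurin; signal relative to control wells, capped at 0 and 100%. One two-parameter sigmoid per drug and line, fitted in a mixed model over all curves with the slope shared within a line.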

[2] = compound: CN(C)Cc1cccc(N=C(c2ccccc2)c2c(O)[nH]c3cc(C(=O)N(C)C)ccc23)c1 [BIX02189]; settings: top dose 20 µM; top dose inferred
Protocol: as §1

[3] = compound: CS(=O)(=O)c1ccc(C(=O)Nc2ccc(Cl)c(-c3ccccn3)c2)c(Cl)c1 [Vismodegib]; settings: top dose 10 µM; top dose inferred
Protocol: as §1

[4] = compound: Cc1cnc(Nc2ccc(F)cc2Cl)nc1-c1c[nH]c(C(=O)N[C@H](CO)c2cccc(Cl)c2)c1 [VX-11e]; settings: top dose 5.12 µM; top dose inferred
Protocol: as §1

[5] = compound: O=C(c1ccc(C(=O)N2CCC(N3CCCC3)CC2)c(Nc2ccccc2)c1)N1CCC(N2CCCC2)CC1 [UNC1215]; settings: top dose 1 µM; top dose inferred
Protocol: as §1

[6] = compound: CCc1cc(-c2n[nH]c(C)c2-c2ccc3c(c2)OCCO3)c(O)cc1O [CCT018159]; settings: top dose 10 µM; top dose inferred
Protocol: as §1

[7] = compound: COC(=O)CNC(=O)C(=O)OC [Dimethyloxalylglycine]; settings: top dose 4000 µM; top dose inferred
Protocol: as §1

[8] = compound: COc1cccc2cc(-c3nc([C@H]4CC[C@H](C(=O)O)CC4)n4ncnc(N)c34)[nH]c12 [OSI-027]; settings: top dose 20 µM
Protocol: as §1

[9] = compound: Cc1cnc(Nc2ccc(OCCN3CCCC3)cc2)nc1Nc1cccc(S(=O)(=O)NC(C)(C)C)c1 [TG101348]; settings: top dose 10.24 µM
Protocol: as §1

[10] = compound: C=CC(=O)Nc1cc(-n2c(=O)ccc3cnc4ccc(-c5ccc(NS(C)(=O)=O)cc5)cc4c32)ccc1C [BMX-IN-1 (QL-XII-61)]; settings: top dose 10 µM; top dose inferred
Protocol: as §1

[11] = compound: C=CCNC1=C2C[C@@H](C)C[C@H](OC)[C@H](O)[C@@H](C)/C=C(\C)[C@H](OC(N)=O)[C@@H](OC)/C=C\C=C(/C)C(=O)NC(=CC1=O)C2=O [17-AAG]; settings: top dose 1 µM
Protocol: as §1

| Cell Line | AUC [1] | IC50 [1] [µM] | AUC [2] | IC50 [2] [µM] | AUC [3] | IC50 [3] [µM] | AUC [4] | IC50 [4] [µM] | AUC [5] | IC50 [5] [µM] | AUC [6] | IC50 [6] [µM] | AUC [7] | IC50 [7] [µM] | AUC [8] | IC50 [8] [µM] | AUC [9] | IC50 [9] [µM] | AUC [10] | IC50 [10] [µM] | AUC [11] | IC50 [11] [µM] |
| --- | --- | --- | --- | --- | --- | --- | --- | --- | --- | --- | --- | --- | --- | --- | --- | --- | --- | --- | --- | --- | --- | --- |
| NCI-H441 (lung adenocarcinoma, adherent) | 0.419 | 0.035 | 0.964 | > 20 | 0.98 | > 10 | 0.966 | > 5.12 | 0.977 | > 1 | 0.938 | > 10 | 0.657 | 817 | 0.98 | > 20 | 0.966 | > 10.2 | 0.977 | > 10 | – | – |
| ES3 (Ewing sarcoma, adherent) | 0.471 | 0.0531 | 0.901 | > 20 | – | – | 0.96 | > 5.12 | 0.983 | > 1 | – | – | 0.63 | 581 | 0.376 | 0.558 | 0.675 | 2.03 | 0.984 | > 10 | 0.817 | 0.598 |
| WM278 (melanoma, adherent) | 0.696 | 0.246 | 0.939 | > 20 | 0.965 | > 10 | 0.694 | 1.21 | 0.968 | > 1 | 0.86 | > 10 | 0.442 | 170 | 0.974 | > 20 | 0.984 | > 10.2 | 0.975 | > 10 | – | – |
| ABC-1 (lung adenocarcinoma, adherent) | 0.519 | 0.0727 | 0.961 | > 20 | 0.983 | > 10 | 0.88 | > 5.12 | 0.979 | > 1 | 0.98 | > 10 | 0.602 | 504 | 0.338 | 0.402 | 0.913 | > 10.2 | 0.958 | > 10 | – | – |
| G-MEL (melanoma, adherent) | 0.45 | 0.0469 | 0.968 | > 20 | 0.901 | > 10 | 0.715 | 1.29 | 0.981 | > 1 | – | – | 0.851 | 3000 | 0.227 | 0.203 | 0.775 | 4.01 | 0.751 | 3.26 | – | – |
| BB65-RCC (kidney, adherent) | 0.501 | 0.0646 | 0.963 | > 20 | 0.976 | > 10 | 0.964 | > 5.12 | 0.978 | > 1 | 0.892 | > 10 | 0.679 | 861 | 0.695 | 4.83 | 0.9 | > 10.2 | 0.929 | > 10 | – | – |
| DMS-53 (small cell lung carcinoma, adherent) | 0.895 | > 1.02 | 0.988 | > 20 | 0.988 | > 10 | 0.988 | > 5.12 | 0.972 | > 1 | 0.953 | > 10 | 0.481 | 222 | 0.952 | > 20 | 0.979 | > 10.2 | 0.987 | > 10 | – | – |
| LS-123 (large intestine, adherent) | 0.345 | 0.0205 | 0.963 | > 20 | 0.965 | > 10 | 0.927 | > 5.12 | 0.979 | > 1 | 0.966 | > 10 | 0.808 | 2950 | 0.572 | 2.1 | 0.896 | > 10.2 | 0.98 | > 10 | – | – |
| Hs-445 (Hodgkin lymphoma, suspension) | 0.35 | 0.0254 | 0.912 | > 20 | – | – | 0.958 | > 5.12 | 0.988 | > 1 | – | – | 0.753 | 1250 | 0.594 | 2.21 | 0.718 | 2.5 | 0.773 | 3.6 | – | – |
| NCI-H1915 (large cell lung carcinoma, adherent) | 0.869 | 0.971 | 0.927 | > 20 | – | – | 0.891 | > 5.12 | 0.986 | > 1 | 0.864 | 8.96 | 0.768 | 1520 | 0.711 | 5.01 | 0.853 | 8.21 | 0.986 | > 10 | – | – |
| NTERA-2 cl.D1 (testis, adherent) | 0.137 | 0.00468 | 0.948 | > 20 | 0.984 | > 10 | 0.973 | > 5.12 | 0.975 | > 1 | 0.848 | 7.34 | 0.273 | 56.9 | 0.715 | 5.02 | 0.844 | 7.22 | 0.967 | > 10 | – | – |
| LB2241-RCC (kidney, adherent) | 0.708 | 0.268 | 0.977 | > 20 | 0.893 | > 10 | 0.975 | > 5.12 | 0.975 | > 1 | 0.886 | > 10 | 0.564 | 383 | 0.982 | > 20 | 0.955 | > 10.2 | 0.957 | > 10 | – | – |
| IST-MES1 (mesothelioma, adherent) | 0.682 | 0.207 | 0.911 | > 20 | – | – | 0.987 | > 5.12 | 0.983 | > 1 | 0.98 | > 10 | 0.737 | 1190 | 0.943 | > 20 | 0.786 | 4.47 | 0.959 | > 10 | – | – |
| no-10 (glioma, adherent) | 0.64 | 0.17 | 0.978 | > 20 | 0.958 | > 10 | 0.972 | > 5.12 | 0.98 | > 1 | 0.975 | > 10 | 0.646 | 699 | 0.635 | 3.23 | 0.934 | > 10.2 | 0.784 | 5.28 | – | – |
| H2803 (mesothelioma, adherent) | 0.838 | 0.863 | 0.892 | > 20 | – | – | 0.971 | > 5.12 | 0.983 | > 1 | 0.981 | > 10 | 0.455 | 185 | 0.645 | 3.37 | 0.794 | 5.62 | 0.983 | > 10 | – | – |
| NCI-H196 (small cell lung carcinoma, adherent) | 0.869 | 1.02 | 0.969 | > 20 | – | – | 0.954 | > 5.12 | 0.982 | > 1 | 0.972 | > 10 | 0.553 | 351 | 0.929 | > 20 | 0.859 | 9.08 | 0.981 | > 10 | – | – |
| PL-21 (acute myeloid leukaemia, suspension) | 0.784 | 0.514 | 0.799 | 11.5 | 0.973 | > 10 | 0.772 | 2.31 | 0.968 | > 1 | 0.861 | > 10 | 0.46 | 191 | 0.189 | 0.122 | 0.625 | 1.51 | 0.98 | > 10 | – | – |
| NCI-H2122 (lung adenocarcinoma, adherent) | 0.377 | 0.0301 | 0.984 | > 20 | – | – | 0.967 | > 5.12 | 0.988 | > 1 | 0.911 | > 10 | 0.283 | 63.8 | 0.951 | > 20 | 0.909 | > 10.2 | 0.987 | > 10 | – | – |
| NCI-H292 (lung adenocarcinoma, adherent) | 0.474 | 0.0534 | 0.83 | 16.4 | – | – | 0.52 | 0.366 | 0.976 | > 1 | 0.918 | > 10 | 0.396 | 122 | 0.414 | 0.692 | 0.979 | > 10.2 | 0.948 | > 10 | – | – |
| COLO-829 (melanoma, adherent) | 0.83 | > 1.02 | 0.972 | > 20 | – | – | 0.858 | > 5.12 | 0.964 | > 1 | 0.905 | > 10 | 0.408 | 124 | 0.401 | 0.589 | 0.927 | > 10.2 | 0.972 | > 10 | – | – |
| VMRC-MELG (melanoma, adherent) | 0.849 | 0.821 | 0.946 | > 20 | 0.989 | > 10 | 0.988 | > 5.12 | 0.988 | > 1 | 0.977 | > 10 | 0.593 | 457 | 0.986 | > 20 | 0.956 | > 10.2 | 0.976 | > 10 | – | – |
| GP5d (large intestine, adherent) | 0.455 | – | 0.958 | > 20 | – | – | 0.918 | > 5.12 | 0.99 | > 1 | 0.987 | > 10 | 0.652 | 628 | 0.839 | 11.6 | 0.853 | 6.75 | 0.99 | > 10 | – | – |
| SW872 (soft tissue, adherent) | 0.618 | 0.13 | 0.98 | > 20 | – | – | 0.987 | > 5.12 | 0.985 | > 1 | 0.896 | > 10 | 0.635 | 567 | 0.871 | 15.8 | 0.94 | > 10.2 | 0.985 | > 10 | – | – |
| SK-N-DZ (neuroblastoma, adherent) | 0.878 | 1.02 | 0.983 | > 20 | 0.98 | > 10 | 0.985 | > 5.12 | 0.987 | > 1 | 0.855 | 7.79 | 0.745 | 1250 | 0.912 | > 20 | 0.909 | > 10.2 | 0.982 | > 10 | – | – |
| H2804 (mesothelioma, adherent) | 0.462 | 0.0499 | 0.967 | > 20 | – | – | 0.985 | > 5.12 | 0.984 | > 1 | 0.984 | > 10 | 0.459 | 191 | 0.736 | 6.36 | 0.747 | 3.56 | 0.972 | > 10 | – | – |
| EPLC-272H (lung squamous cell carcinoma, adherent) | 0.605 | 0.129 | 0.908 | > 20 | 0.982 | > 10 | 0.891 | > 5.12 | 0.978 | > 1 | 0.846 | 8.73 | 0.825 | 2830 | 0.377 | 0.547 | 0.765 | 4.23 | 0.963 | > 10 | – | – |
